Laboratory results reported in the supplement of paper PMC10126150.
Values marked as one replicate rest on one cluster of the flow cell; about a third of the high ones do not repeat.

test system: ATP; test: switch fluorescence ratio, 500 uM ATP over buffer (Cy3 cluster intensity, sum of 5 cycles each) (fold (ratio)); higher = stronger signal-on switching upon ATP binding; sequences stand for … in TCGTCGGCAGCGTCAGATGTGTATAAGAGACAGTTTTTTTTTTTTTTTTTTTTTTTTT…TC; settings: aptamer strand: ATP DNA aptamer (quencher-CACCTGGGGGAGTATTGCGGAGGAAGG + anchor), 100 nM annealed; ATP concentration: 500 uM; one replicate
How it was run: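 Values give the fluorescence ratio for each switch-domain sequence, averaged from per-cluster ratios of summed target-cycle to summed buffer-cycle Cy3 intensity. The Cy3-labelled switching-strand clusters sat on a modified Illumina MiSeq flow-cell, were annealed to 100 nM quencher-labelled ATP aptamer, and were imaged in selection buffer, then after 15 min with 500 uM ATP at 22 °C. Five cycles ran with NaOH stripping and re-annealing between them, and clusters outside 100-1000 RFU were excluded.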
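Also: ATP exposure 15 min at 22 °C before imaging.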

| Sequence | switch fluorescence ratio |
| --- | --- |
| TTTCAGGAGC | 2.03 |
| TTTCAGTAT | 0.991 |
| TTTCAGTCGT | 1 |
| TTTCAGTGT | 1.05 |
| TTTCATAGAT | 0.993 |
| TTTCCCAGAG | 1.05 |
| TTTCCCCAAA | 0.997 |
| TTTCCCTGTG | 1.11 |
| TTTCCGAGCG | 1.09 |
| TTTCCTACTT | 1.17 |
| TTTCGCAAAA | 1.04 |
| TTTCGCCAGT | 1.01 |
| TTTCGCCTC | 1.24 |
| TTTCGCGGGG | 1.05 |
| TTTCGGAATG | 1.97 |
| TTTCGGATAG | 0.967 |
| TTTCGGGGTC | 1.07 |
| TTTCGTAAGC | 1.24 |
| TTTCGTCCCA | 1.03 |
| TTTCTAGTAA | 0.988 |
| TTTCTATACT | 1.11 |
| TTTCTCAGAA | 0.977 |

| Sequence | switch fluorescence ratio |
| --- | --- |
| TTTCTCGGA | 1.05 |
| TTTCTGCGTT | 1.71 |
| TTTCTGTCAT | 0.978 |
| TTTCTTCGGC | 1.28 |
| TTTGAAAAAA | 1.02 |
| TTTGAAAGCA | 0.972 |
| TTTGAATATC | 1.09 |
| TTTGACAACC | 1.02 |
| TTTGAGGAAC | 0.995 |
| TTTGATCTTA | 1 |
| TTTGATGAAT | 1.01 |
| TTTGATGCAC | 1.15 |
| TTTGATGGA | 1.02 |
| TTTGATTAGA | 1.02 |
| TTTGCATTGG | 1.13 |
| TTTGCCCGGG | 1.34 |
| TTTGCCGGCC | 0.947 |
| TTTGCCTTGA | 1.03 |
| TTTGCGAAGA | 1 |
| TTTGCGCTAT | 2.55 |
| TTTGCGGCG | 1.01 |
| TTTGCGTAG | 0.934 |

| Sequence | switch fluorescence ratio |
| --- | --- |
| TTTGCGTCCT | 1.03 |
| TTTGCTACCT | 1.17 |
| TTTGCTCTCA | 0.996 |
| TTTGGAACCC | 1.04 |
| TTTGGACACG | 0.986 |
| TTTGGACTAA | 1.03 |
| TTTGGACTTT | 1.01 |
| TTTGGAGAAG | 1.05 |
| TTTGGCAGCT | 0.971 |
| TTTGGCATCG | 0.999 |
| TTTGGCGATA | 0.999 |
| TTTGGCGC | 0.977 |
| TTTGGCGCAG | 1 |
| TTTGGCTCCC | 1.05 |
| TTTGGGCTAA | 0.951 |
| TTTGGGGCA | 1.02 |
| TTTGGGTTAG | 0.963 |
| TTTGGGTTG | 0.973 |
| TTTGGTAACA | 1.03 |
| TTTGGTCCTC | 1.06 |
| TTTGTAAGAG | 1.03 |
| TTTGTAATCG | 0.914 |

| Sequence | switch fluorescence ratio |
| --- | --- |
| TTTGTACTAG | 1 |
| TTTGTATGT | 1.01 |
| TTTGTATTCT | 0.943 |
| TTTGTCAAGT | 1.02 |
| TTTGTCACCA | 1.02 |
| TTTGTCATAG | 1.03 |
| TTTGTCGCAC | 1.27 |
| TTTGTGAAT | 0.977 |
| TTTGTGAGCG | 1.03 |
| TTTGTGTGAA | 1.05 |
| TTTGTGTGCT | 0.957 |
| TTTGTTGTCG | 0.971 |
| TTTTAACATG | 1 |
| TTTTAATGGC | 1.35 |
| TTTTACATTA | 1.01 |
| TTTTACCCTG | 1.01 |
| TTTTAGCCGG | 1.01 |
| TTTTAGGCT | 0.986 |
| TTTTATAAA | 1.04 |
| TTTTATACAC | 1.03 |
| TTTTCAACGT | 1 |
| TTTTCCCGG | 1.03 |

| Sequence | switch fluorescence ratio |
| --- | --- |
| TTTTCCCTGT | 1.06 |
| TTTTCGACGC | 1.8 |
| TTTTCGCGCC | 1.1 |
| TTTTCGTTGG | 1.01 |
| TTTTCTGGAG | 1.26 |
| TTTTCTTAAA | 1 |
| TTTTGCAGTT | 0.993 |
| TTTTGGGGG | 0.991 |
| TTTTGTGTCG | 1.02 |
| TTTTTAAGA | 1.01 |
| TTTTTACCTA | 1.01 |
| TTTTTACTAC | 1.04 |
| TTTTTAGACA | 1.01 |
| TTTTTATCAC | 1.04 |
| TTTTTCGCT | 1.02 |
| TTTTTCGTAC | 1.04 |
| TTTTTCTTGC | 1.03 |
| TTTTTGATC | 0.989 |
| TTTTTGGCG | 1.04 |
| TTTTTGTCAA | 0.985 |
| TTTTTTCCAG | 0.97 |
